Experimental data as given in PubChem BioAssay AID588342 (National Center for Advancing Translational Sciences (NCATS), 2011).
Several values for one entry are separate records, joined by “and”; a condition that tells them apart may be missing. Equal entries are not always repeated. About 25,000 (6.9%) of roughly 360,000 compounds were called active. This list was built around the results that the source calls inconclusive (neither active nor inactive); the mix of calls is not that of the screen. The call rests on the fitted dose curve; in most records, active means well fitted inhibition curve with a large enough effect; inconclusive means small, poorly fitted or top-dose-only effect; inactive means flat fitted curve, though single readings scatter. Where the call is inconclusive, the potency comes from a doubtful curve fit.

The compounds below were run against Luciferin 4-monooxygenase (Photinus pyralis) (UniProt P08659) (assay: qHTS profiling assay for firefly luciferase inhibitor/activator using purifed enzyme and Km concentrations of substrates (counterscreen for miR-21 project)). Details: purified FLuc, luminescence inhibition; series mostly up to 57.5 µM; activity change, negative = inhibition: at the top concentration.
Method in brief: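 Purified P. pyralis luciferase (10nM final) with 10uM D-luciferin and 10uM ATP (Km levels) in 50mM Tris acetate pH 7.5, 10mM Mg acetate, 0.01% Tween-20, 0.05% BSA; qHTS 6-point titration, ~60 µM downward; luminescence read.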
Further: nearly all actives have a fitted effect of over 55% in size.
Potency means the concentration at half of the fitted maximal effect; tags describe the fitted curve by direction and shape.
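Wherever activity change, negative = inhibition is given: plate controls were vehicle for no effect and reference inhibitor for full effect.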

Chain of UniProt P08659 (P08659 whole entry, looked up): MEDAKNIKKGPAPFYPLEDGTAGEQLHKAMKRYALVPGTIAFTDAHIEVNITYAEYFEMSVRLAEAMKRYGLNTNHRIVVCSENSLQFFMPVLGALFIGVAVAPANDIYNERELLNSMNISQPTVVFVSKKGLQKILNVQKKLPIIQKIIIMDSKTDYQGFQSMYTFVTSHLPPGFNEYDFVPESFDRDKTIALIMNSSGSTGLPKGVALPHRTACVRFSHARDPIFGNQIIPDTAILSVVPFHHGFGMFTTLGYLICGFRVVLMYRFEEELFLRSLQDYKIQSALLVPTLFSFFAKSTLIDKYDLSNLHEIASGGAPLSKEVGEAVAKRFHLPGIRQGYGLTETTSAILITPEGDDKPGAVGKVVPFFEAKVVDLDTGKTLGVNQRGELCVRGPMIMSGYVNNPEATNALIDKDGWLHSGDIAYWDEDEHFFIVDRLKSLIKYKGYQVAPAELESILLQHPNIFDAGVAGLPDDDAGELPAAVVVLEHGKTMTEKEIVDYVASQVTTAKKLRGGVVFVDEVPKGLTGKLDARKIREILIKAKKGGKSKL

Row | Compound | Potency | activity change, negative = inhibition
1 | COc1ccc(S(=O)(=O)N2CCOCC2)cc1NC(=O)Cc1coc2cc(C)ccc12 | inconclusive: 37.9 µM [inhibitor, single point] | –
2 | CCOC(=O)CN1CC23C=CC(O2)C(C(=O)Nc2ccc4c(c2)OCO4)C3C1=O (configuration not stated) | inconclusive: 15.1 µM [inhibitor, partial curve] | –
3 | c1cc2c(cc1NC1CCCCCC1)OCO2 | inconclusive: 37.9 µM [inhibitor, partial curve, poor fit] | –
4 | Cc1ccccc1OCCC(=O)OCC(=O)N(C)c1c(N)n(Cc2ccccc2)c(=O)[nH]c1=O | – | inactive: 5.65%
5 | O=C(NCc1cccs1)C(=O)c1c[nH]c2ccccc12 | inconclusive: 30.1 µM [inhibitor, partial curve, poor fit] | –
6 | O=C(N/N=C/c1cccnc1)c1ccccc1OCc1ccc(Cl)cc1 | inconclusive: 21.3 µM [inhibitor, partial curve, poor fit] | –
7 | CCCOc1ccc(-c2nnn(CC(=O)c3ccc4c(c3)OCCO4)n2)cc1 | inconclusive: 12 µM [inhibitor, partial curve, poor fit] | –
8 | CCNC(=O)COc1ccc(Br)cc1Cl | inconclusive: 23.9 µM [inhibitor, single point] | –
9 | O=C(NCCN1C(=O)S/C(=C\c2ccccc2)C1=O)C1CCN(S(=O)(=O)c2cccs2)CC1 | inconclusive: 26.9 µM [inhibitor, single point] | –
10 | O=C(Cn1cc(SCc2ccccc2Cl)c2ccccc21)N1CCCCCC1 | inconclusive: 5.36 µM [inhibitor, partial curve, poor fit] | –
11 | O=C(Nc1ccc2c(c1)N(C1CCCC1)C(=O)c1ccccc1S2)c1ccccc1 | – | inactive: 2.35%
12 | COc1ccccc1N1CCN(C(=O)CSc2nc3ccccc3o2)CC1 | inconclusive: 21.3 µM [inhibitor, partial curve, poor fit] | –
13 | Cc1ccc(SCC(=O)Nc2ccc3oc(-c4cccc(C)c4)nc3c2)cc1 | inconclusive: 6.75 µM [inhibitor, partial curve, poor fit] | –
14 | O=C(Cn1cncn1)N/N=C/c1ccccc1O | inconclusive: 26.9 µM [inhibitor, partial curve] | –
15 | CSc1cccc(NC(=O)CN2C(=O)c3ccccc3S2(=O)=O)c1 | inconclusive: 23.9 µM [inhibitor, partial curve, poor fit] | –
16 | Cc1ccc(-n2c(C)cc(/C=N/NC(=O)c3ccncc3)c2C)c(C)c1 | active: 12 µM | –
17 | CC(C)(C)NC(=O)CN(C(=O)C(=O)Nc1ccc2c(c1)OCCO2)C1CCCC1 | – | inactive: 1.9%
18 | CC(=O)OCC(=O)c1ccc2ccn(C(C)=O)c2c1 | inconclusive: 19 µM [inhibitor, partial curve] | –
19 | COc1ccc(C2CC(=O)N3CN(C4CCCCC4)CSC3=C2C#N)cc1 (configuration not stated) | inconclusive: 21.3 µM [inhibitor, single point] | –
20 | FC(F)(F)c1cnc(COc2ccc(Cl)cc2Cl)c(Cl)c1 | inconclusive: 19 µM [inhibitor, partial curve] | –
21 | N/C(=N\OCc1ccccc1)c1nonc1N | inconclusive: 26.9 µM [inhibitor, single point] | –
22 | COc1ccc(-c2nn(-c3ccccc3)cc2/C=C(\CC(=O)O)c2nc3ccccc3s2)cc1OC | active: 9.53 µM | –
23 | Cc1ccc(N2CCN(CC(O)COc3ccccc3)CC2)cc1 (configuration not stated) | – | inactive: 0.639%

Row | Compound | Potency | activity change, negative = inhibition
24 | Cc1ccc(C(=O)NC(=C(Cl)Cl)S(=O)(=O)c2ccc(Cl)cc2)cc1 | – | inactive: -6.59%
25 | Cc1sc(=NC(=O)c2ccco2)n(C)c1-c1ccc(F)cc1 | active: 2.39 µM | –
26 | Cc1nn(-c2ccccc2)nc1C(=O)Nc1nnc(C(F)(F)F)s1 | inconclusive: 23.9 µM [inhibitor, single point] | –
27 | O=C1NN(c2ccc(Cl)c(Cl)c2)C(=O)/C1=C/c1ccc(-c2ccccc2C(=O)O)o1 | inconclusive: 23.9 µM [inhibitor, single point] | –
28 | CSc1nc(C)c2c(n1)N(c1cccc(C)c1)CC2 | inconclusive: 37.9 µM [inhibitor, partial curve, poor fit] | –
29 | CCn1c(Cc2ccc(OC)cc2)nnc1SCC(=O)Nc1ccc(N2CCOCC2)cc1 | active: 23.9 µM | –
30 | Cc1ccc2nc3ccc(N4CCCCCCC4)nn3c(=O)c2c1 | active: 5.36 µM | –
31 | COc1ccc(NC(=O)c2c(NCc3ccc(C)o3)sc3c2CCC(C)C3)cc1 (configuration not stated) | inconclusive: 37.9 µM [inhibitor, partial curve, poor fit] | –
32 | C/C(=N\NC(=O)c1c(C)nc2ccccn12)c1ccc(C(C)(C)C)cc1 | – | inactive: -1.53%
33 | COc1cc(NC(=O)C2=C(C)Nc3nnnn3C2c2ccc(SC)cc2)c(OC)cc1Cl (configuration not stated) | – | inactive: -19.1%
34 | CCOC(=O)c1ccc(NC(=O)c2nc(S(=O)(=O)Cc3ccccc3)ncc2Cl)cc1 | inconclusive: 16.9 µM [inhibitor, partial curve, poor fit] and inconclusive: 30.1 µM [inhibitor, single point] | –
35 | Cc1ccc(Oc2ccc(-c3nc(N)nc(N)n3)cc2)cc1 | inconclusive: 23.9 µM [inhibitor, single point] | –
36 | CCOC(=O)CN(C(=O)CSc1nnc(CNc2ccc(F)cc2)n1CC)c1ccc(F)cc1 | inconclusive: 8.49 µM [inhibitor, partial curve, poor fit] | –
37 | Cc1nn(CCCC(=O)NCc2ccccc2)c(=O)c2c1sc1ccccc12 | inconclusive: 19 µM [inhibitor, partial curve] | –
38 | CCc1cc(C(=O)c2ccc(OC)cc2)c(NC(=O)CN2CCN(C)CC2)s1 | – | inactive: 2.35%
39 | O=C1CC(c2ccccc2)CC(O)=C1C=NC1CCCCCC1 (configuration not stated) | inconclusive: 23.9 µM [inhibitor, partial curve, poor fit] | –
40 | COc1cccc(-c2nnc(N(C)C(=O)C3CCOC3)s2)c1 (configuration not stated) | inconclusive: 23.9 µM [inhibitor, single point] | –
41 | COc1cc(OC)c(NC(=O)N2CCOc3ccc(C)cc32)cc1Cl | – | inactive: -3.75%
42 | NS(=O)(=O)c1ccc(CNC(=O)c2cc(-c3ccccn3)nc3ccc(Cl)cc23)cc1 | – | inactive: 2.54%
43 | CC/C(=C\C(=O)c1cccnc1)Nc1ccc(C)c(C)c1 | inconclusive: 16.9 µM [inhibitor, partial curve] | –
44 | Cc1nn(-c2ccccc2)c2nc(N)c(C#N)c(-c3ccc(O)c(O)c3)c12 | inconclusive: 21.3 µM [inhibitor, partial curve, poor fit] | –
45 | CCOc1ccc(C(=O)Nc2ccc(Cc3ccncc3)cc2)cc1Br | inconclusive: 19 µM [inhibitor, partial curve, poor fit] | –
46 | Cc1ccc(/C=N/NC(=O)c2cccc(S(=O)(=O)Nc3ccccc3Cl)c2)s1 | inconclusive: 30.1 µM [inhibitor, single point] | –

Row | Compound | Potency | activity change, negative = inhibition
47 | Cc1ccc(C(=O)O)cc1-c1ccc(/C=C2\SC(=O)N(CC(=O)Nc3ccccc3)C2=O)o1 | inconclusive: 37.9 µM [inhibitor, partial curve, poor fit] | –
48 | Cc1ccc(C(=O)CSc2nnnn2-c2ccccc2)o1 | inconclusive: 37.9 µM [inhibitor, partial curve, poor fit] | –
49 | CC1=C(C(N)=O)C(c2cccc(C)c2)n2nc(-c3ccc(Cl)cc3)nc2N1 (configuration not stated) | inconclusive: 37.9 µM [inhibitor, partial curve, poor fit] | –
50 | CC(C)N(Cc1ccccc1)S(=O)(=O)c1ccc(Cl)nc1 | inconclusive: 6.01 µM [inhibitor, partial curve, poor fit] | –
51 | CN(Cc1ccc(F)cc1)C(=O)COc1ccc2ccccc2c1 | – | inactive: -8.15%
52 | COCCN(Cc1ccccc1)C(=O)C1CCN(S(=O)(=O)c2ccc3c(c2)OCCO3)CC1 | – | inactive: 7.15%
53 | CCN(CC)c1ccc(/C=N/Nc2ccc(C)cc2)c(O)c1 | inconclusive: 21.3 µM [inhibitor, partial curve, poor fit] | –
54 | COc1ccc(/C(O)=C2/C(=O)C(=O)N(Cc3ccco3)C2c2cccs2)cc1 (configuration not stated) | inconclusive: 21.3 µM [inhibitor, partial curve] | –
55 | CCCCC(=O)Nc1cccc(-c2csc(-c3ccccc3)n2)c1 | inconclusive: 15.1 µM [inhibitor, partial curve] | –
56 | Clc1ccc2nc(-c3ccc4c(c3)OCO4)cn2c1 | active: 0.12 µM | –
57 | Cc1ccc(Nc2c(-c3ccc(N(C)C)cc3)nc3ccccn23)cc1 | active: 7.57 µM | –
58 | Cc1ccc(-c2ccc(CCC(=O)O)n2-c2cccc(C(=O)O)c2)cc1 | inconclusive: 37.9 µM [inhibitor, single point] | –
59 | C=C(C)COc1ccc(-c2[nH]ncc2Oc2ccccc2OC)c(O)c1 | inconclusive: 23.9 µM [inhibitor, partial curve, poor fit] | –
60 | CCS(=O)(=O)c1ccc(O)c(NC(=O)/C=C/c2ccccc2)c1 | inconclusive: 19 µM [inhibitor, partial curve] | –
61 | O=C(N/N=C/c1ccccc1OCc1ccccc1)c1cccnc1 | active: 10.7 µM | –
62 | COc1ccccc1C(=O)NCC(=O)Nc1ccc2c(c1)CCC2 | active: 12 µM | –
63 | Nc1nc(N)nc(COc2ccccc2)n1 | inconclusive: 19 µM [inhibitor, partial curve, poor fit] | –
64 | O=C(O)COc1ccccc1/C=N/NC(=O)CSc1nc2ccccc2n1Cc1ccccc1Cl | – | inactive: 0.379%
65 | CCOC(=O)C1(Cc2cccc(OC)c2)CCCN(C(=O)CCc2cccnc2)C1 (configuration not stated) | active: 16.9 µM | –
66 | CCCC(=O)Nc1ccc2c(c1)nc1n2CCSC1 | inconclusive: 30.1 µM [inhibitor, single point] | –
67 | COc1ccc(C(=O)Nn2c(SCc3cccc([N+](=O)[O-])c3)nc3ccccc3c2=O)cc1 | active: 5.36 µM | –
